Inconclusive results, whose numbers are uncertain, are shown with a selection of clear calls. No potency is given beside an inconclusive call; the fits are too rough. Active and inactive are the calls of the source. Calls come from the whole dose curve; as a rule, active = well fitted cell-killing curve with a large enough effect in the repeat runs; inconclusive = weak or mixed curves, or effect the other way; inactive = flat fitted curve, though single readings scatter.
Assay: qHTS assay to identify small molecule agonists of the estrogen receptor beta (ER-beta) signaling pathway - cell viability counter screen (AID 1259380); note: nearly all actives have a fitted effect of over 30% in size
Details: ER-beta-bla HEK293T viability, CellTiter-Glo luminescence, 16 h; series mostly up to 92.4 µM; activity change, negative = cytotoxicity: at the top concentration
Method in brief: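 HEK293T ER-beta-UAS-bla; 2% CS-FBS; 6 hr pre-plate, 16 hr cpd at 37C/5% CO2; LiveBLAzer read first, then CellTiter-Glo 30 min RT, luminescence.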
With `CCCCOC(=O)c1ccccc1` the “activity change, negative = cytotoxicity” value was inactive: 5.47%. For `CC1=NC(C)OC1C` (stereo not given), the “activity change, negative = cytotoxicity” value was inactive: 1.31%. For `C[C@H]1NCc2cc(-c3ccc4c(=O)c(C(=O)O)cn(C5CC5)c4c3OC(F)F)ccc21`, the activity change, negative = cytotoxicity was inactive: -4.82% [at 19 µM]. In the case of `COc1cc(S(=O)(=O)Nc2ccccc2)c(OC)cc1N`, the Potency is reported as inconclusive [cytotoxic]. With `CC(=O)[O][Al][O]C(C)=O` the Potency was inconclusive [rising, partial curve, poor fit]. In the case of `Nc1c2c(nc3ccccc13)CCCC2O` (stereo not given), the “activity change, negative = cytotoxicity” value is reported as inactive: 1.5% [at 42.5 µM]. With `CNCc1ccc(NC(=O)c2c[nH]c3c2C(=O)CCC3)cc1` the Potency was inconclusive [rising, partial curve, poor fit]. For `Cc1ccc(S(=O)(=O)O)cc1C`, the Potency was inconclusive [rising, single point]. For `CC1CCc2nccnc21` (stereo not given), the “activity change, negative = cytotoxicity” value was inactive: 1.83%. With `CC/C=C\CCOC(C)=O` the “activity change, negative = cytotoxicity” value was inactive: 2.15%. For `CCOC(=O)[C@H](CCc1ccccc1)N[C@@H](C)C(=O)N1CCC[C@H]1C(=O)O`, the Potency was inconclusive [cytotoxic, single point]. With `CC(C)(CO)COC(=O)C(C)(C)CO` the Potency was “inactive”. With `COc1ccc(C)cc1` the “activity change, negative = cytotoxicity” value was inactive: 0.103%. For `O=C(Nc1ccccc1)Nc1ccccc1`, the Potency was inconclusive [cytotoxic, partial curve]. In the case of `CCCCCC(C)OC(=O)COc1ccc(Cl)c2cccnc12` (stereo not given), the Potency is reported as active: 54.5 µM. In the case of `C=CC(=O)O`, the “activity change, negative = cytotoxicity” value is reported as inactive: 1.4% [at 42.5 µM]. For `COc1nc(C)nc(NC(=O)NS(=O)(=O)c2ccccc2OCCCl)n1`, the Potency was inconclusive [rising, partial curve, poor fit]. For `Nc1cccc(O)c1`, the “activity change, negative = cytotoxicity” value was inactive: -5.28%. In the case of `COc1ccc2cccc(CCNC(C)=O)c2c1`, the Potency is reported as inconclusive [cytotoxic, single point]. With `COCCOCCOCCO` the Potency was “inactive”. For `CC1=C(C(=O)O)N2C(=O)[C@@H](NC(=O)[C@H](N)c3ccc(O)cc3)[C@H]2SC1`, the Potency was inconclusive [rising, partial curve, poor fit]. In the case of `O=C1CC(c2ccc(Cl)cc2)CC(=O)N1`, the “activity change, negative = cytotoxicity” value is reported as inactive: 0.417% [at 42.5 µM]. For `O=C1OC(=O)c2cc([N+](=O)[O-])ccc21`, the “activity change, negative = cytotoxicity” value was inactive: 3.14%. With `O=C(/N=N/C(=O)OCc1ccccc1)OCc1ccccc1` the Potency was inconclusive [cytotoxic, single point]. With `CC(=O)c1ccc2ccc3ccccc3c2c1` the Potency was inconclusive [cytotoxic, single point]. In the case of `COC(=O)CC(C(C)=O)C(=O)OC` (stereo not given), the Potency is reported as inconclusive [rising, partial curve, poor fit]. In the case of `O=C(/C=C/c1ccccc1)OC/C=C/c1ccccc1`, the “activity change, negative = cytotoxicity” value is reported as inactive: 4.86%. With `Cc1cccn2c(=O)c(-c3nnn[nH]3)cnc12` the Potency was inconclusive [rising, partial curve, poor fit]. In the case of `CCCCCCCCCCCC(=O)OCC(C)OC(=O)CCCCC(=O)O` (stereo not given), the “activity change, negative = cytotoxicity” value is reported as inactive: -5.29% [at 42.5 µM]. With `CC(C)C(OC(=O)c1ccccc1)C(C)(C)COC(=O)c1ccccc1` (stereo not given) the Potency was inconclusive [cytotoxic, partial curve, poor fit]. With `CCN1CCOCC1` the “activity change, negative = cytotoxicity” value was inactive: -0.542%. In the case of `CC(C)C1=CC2=CC[C@@H]3[C@](C)(CCC[C@@]3(C)C(=O)O)[C@H]2CC1`, the Potency is reported as active: 30.6 µM. For `O=C(O)[C@@H]1[C@H]2C[C@H]3c4[nH]c5ccccc5c4CCN3C[C@@H]2CC[C@@H]1O`, the “activity change, negative = cytotoxicity” value was inactive: 0.667% [at 42.5 µM]. In the case of `CCOC(=O)c1ccc(NC(=O)CN2CCCCC2)cc1`, the Potency is reported as inconclusive [cytotoxic, partial curve]. In the case of `CC1(C)CC(N=C=O)CC(C)(CN=C=O)C1` (stereo not given), the Potency is reported as “inactive”. In the case of `O=C(O)Cc1ccc(Cl)cc1Cl`, the “activity change, negative = cytotoxicity” value is reported as inactive: 0.0038%. In the case of `CC(=O)N[C@@H](Cc1ccc(O)cc1)C(=O)O`, the “activity change, negative = cytotoxicity” value is reported as inactive: 2.38% [at 42.5 µM]. For `CC(=O)OCC(C)C`, the Potency was inconclusive [cytotoxic, single point]. In the case of `Cc1cc2c(cc1CC(=O)c1sccc1S(=O)(=O)Nc1onc(C)c1Cl)OCO2`, the Potency is reported as inconclusive [cytotoxic, single point]. In the case of `CC(CCl)OP(=O)(OC(C)CCl)OC(C)CCl` (stereo not given), the Potency is reported as “inactive”.

— PubChem BioAssay (Tox21)
% is set by controls: 0 for no effect and ±100 for the full control effect; potency is the fitted concentration of half-maximal effect; tags give direction and shape of the fitted curve.
